# Over roughly 16,000 sequences, “Z-score” has its median near -0.37; the highest 2% begin near 3.1. The list shows a part of the results.
# Tested on: RBM10 RRM1-ZnF-RRM2 (GST-tagged construct)
# Assay: RNAcompete 7-mer binding Z-score; higher = stronger binding preference
# Procedure, shortened: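 In 1 ml Hepes pH 7.8 buffer with KCl, NaCl, glycerol, DTT, BSA and glutathione Sepharose beads, GST-tagged RBM10 constructs (20 pmol) were incubated for 30 min at 4°C with 1.5 nmol of a designed pool of 241 399 RNAs up to 41 nt. Four 2-min washes at 4°C followed, and bound RNA was detected by microarray hybridisation. Heptamer motif enrichment was expressed as a one-sided Z-score across probes containing each motif.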
row,Sequence,RNAcompete 7-mer binding Z-score
1,GAAACGU,0.101
2,GCUAAUU,-0.697
3,GGAAAUG,2.83
4,CUGGUAC,-0.209
5,CAACUCC,-0.628
6,UUUUGAU,-0.621
7,UGAGACC,-0.391
8,AAGAAAC,-0.0925
9,AGUGUCU,-0.624
10,UAAGAUG,0.363
11,AAUGAAG,0.599
12,GGCCCCU,-0.646
13,UGGCUCU,-0.57
14,GCUGUUG,-0.442
15,ACCGCCA,-0.744
16,CGAUGUG,0.173
17,CGGCAAA,0.406
18,GCUUCUA,-0.821
19,CUAUACG,-0.646
20,AAUGCAU,-0.402
21,CUUCGAC,-0.777
22,GAUGGGC,2.09
23,UCCGGAA,-0.242
24,UGCCACC,-0.759
25,UAGUCGU,-0.176

row,Sequence,RNAcompete 7-mer binding Z-score
1,GAGUGGC,1.81
2,UAGAACU,-0.231
3,GCAGAGC,0.691
4,GAUCGUG,0.221
5,GUCGGAA,0.92
6,GGCCCUC,-0.836
7,UCGAGAU,-0.246
8,GAGAGGA,2.15
9,CCUAGUU,-0.781
10,CUUGUAG,-0.5
11,GAUCCCC,-0.526
12,UAUAAUU,-0.493
13,UCCAGCA,-0.533
14,UAGGUCU,0.0204
15,GUGUGCG,1.39
16,UGACGCU,-0.69
17,AUGUCUC,-0.661
18,UAACAAC,-0.442
19,UGUCACC,-0.628
20,ACCCACC,-0.584
21,GUAGUUG,0.945
22,UUCGGAU,-0.256
23,AAAAAUC,-0.475
24,ACGAUAG,0.468
25,CCCCUCA,-0.606

row,Sequence,RNAcompete 7-mer binding Z-score
1,GACUAAG,0.141
2,UAAGCAA,-0.0816
3,AUCACAA,-0.402
4,ACACUCG,-0.639
5,CGGAAGA,0.862
6,GGGAAUU,1.91
7,GGUCGGA,1.6
8,UACCGAC,-0.65
9,ACGGACG,0.884
10,UACGAAU,-0.151
11,AAAAGGU,2.52
12,CUAUACC,-0.726
13,AACGUUG,-0.0124
14,UGCAACA,-0.3
15,AGAAUAC,-0.318
16,GAUCAAC,-0.366
17,GGCUGUA,0.0058
18,CUAUUGU,-0.602
19,UGUAAGA,0.202
20,UGCACAC,-0.413
21,CCGUUAC,-0.777
22,ACAAACA,-0.187
23,UCGGGUA,1.57
24,UCUAGAG,-0.486
25,UAUAAAU,-0.428

row,Sequence,RNAcompete 7-mer binding Z-score
1,CGGUCAA,-0.333
2,CUAACAG,-0.369
3,AAGCCAG,-0.318
4,CAAGCAA,-0.103
5,UAUACAC,-0.424
6,GCCUCAA,-0.821
7,CUGAGAC,-0.402
8,CUGAGCC,-0.668
9,GUGUUGG,1.79
10,GAGGUCA,0.545
11,UUAUGAA,-0.369
12,GCACUCA,-0.632
13,GAGGGCU,1.27
14,CUUAUCC,-0.865
15,GAUCACC,-0.657
16,AGGCUCC,-0.624
17,UAAGUCA,-0.0816
18,GGACUCU,-0.541
19,AUAGGGC,2.14
20,CUCAUAA,-0.887
21,CACGCGG,0.294
22,CCGGAAG,0.352
23,GCUGAUC,-0.453
24,AAAUCGA,-0.0452
25,GUCAUUU,-0.53

# Reference: the supplement of paper PMC5499739
